Test results taken from PMC6891891.
Results are given in words; binding and its absence hold for the method and conditions named. Where a sequence is shown, tags or fusion partners need not be part of it.

Target: T1, SUMO ligase Siz2, Y2H fusion (S. cerevisiae) (UniProt Q12216)
T1 sequence: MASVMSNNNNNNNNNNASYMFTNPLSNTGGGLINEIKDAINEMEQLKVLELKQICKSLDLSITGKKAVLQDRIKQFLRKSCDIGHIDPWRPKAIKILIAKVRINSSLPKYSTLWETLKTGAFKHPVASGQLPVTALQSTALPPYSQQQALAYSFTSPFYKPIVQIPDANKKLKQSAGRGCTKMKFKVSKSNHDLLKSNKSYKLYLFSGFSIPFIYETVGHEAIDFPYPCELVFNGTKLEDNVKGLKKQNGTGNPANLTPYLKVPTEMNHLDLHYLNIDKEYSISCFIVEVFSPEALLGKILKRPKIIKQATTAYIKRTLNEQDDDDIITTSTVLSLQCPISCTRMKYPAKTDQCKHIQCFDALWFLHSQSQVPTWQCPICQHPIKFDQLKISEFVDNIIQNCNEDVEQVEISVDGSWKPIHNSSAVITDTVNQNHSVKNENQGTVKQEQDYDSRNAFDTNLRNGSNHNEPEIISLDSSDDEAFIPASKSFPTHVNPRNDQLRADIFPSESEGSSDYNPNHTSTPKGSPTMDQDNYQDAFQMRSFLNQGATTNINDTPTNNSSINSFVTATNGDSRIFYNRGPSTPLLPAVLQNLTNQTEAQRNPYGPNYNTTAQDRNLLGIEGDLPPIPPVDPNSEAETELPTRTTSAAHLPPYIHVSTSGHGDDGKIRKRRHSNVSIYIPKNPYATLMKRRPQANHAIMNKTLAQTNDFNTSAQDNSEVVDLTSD
Assay: condition: only in a Y2H reporter strain lacking both Siz1 and Siz2; two-hybrid; directed Y2H in a reporter strain in which both SUMO ligases Siz1 and Siz2 were deleted (Figure 4E)

- binding: no binding
B1: Dbf4, AD-fusion and BD-fusion for Y2H (protein, UniProt P32325 1-704)
chain: MVSPTKMIIRSPLKETDTNLKHNNGIAASTTAAGHLNVFSNDNNCNNNNTTESFPKKRSLERLELQQQQHLHEKKRARIERARSIEGAVQVSKGTGLKNVEPRVTPKELLEWQTNWKKIMKRDSRIYFDITDDVEMNTYNKSKMDKRRDLLKRGFLTLGAQITQFFDTTVTIVITRRSVENIYLLKDTDILSRAKKNYMKVWSYEKAARFLKNLDVDLDHLSKTKSASLAAPTLSNLLHNEKLYGPTDRDPRTKRDDIHYFKYPHVYLYDLWQTWAPIITLEWKPQELTNLDELPYPILKIGSFGRCPFIGDRNYDESSYKRVVKRYSRDKANKKYALQLRALFQYHADTLLNTSSVNDQTKNLIFIPHTCNDSTKSFKKWMQEKAKNFEKTELKKTDDSAVQDVRNEHADQTDEKNSILLNETETKEPPLKEEKENKQSIAEESNKYPQRKELAATPKLNHPVLATFARQETEEVPDDLCTLKTKSRQAFEIKASGAHQSNDVATSFGNGLGPTRASVMSKNMKSLSRLMVDRKLGVKQTNGNNKNYTATIATTAETSKENRHRLDFNALKKDEAPSKETGKDSAVHLETNRKPQNFPKVATKSVSADSKVHNDIKITTTESPTASKKSTSTNVTLHFNAQTAQTAQPVKKETVKNSGYCENCRVKYESLEQHIVSEKHLSFAENDLNFEAIDSLIENLRFQI
